The entries are a selection whose mix differs from that of the whole data set. The list includes weakly bound sequences.
Tests used:
Assay in all cases: protein-binding microarray (PBM)
Settings in all cases: PBM: ~300 nM protein, 6 mM HEPES pH 7.8, 80 mM KCl, 0.5 mM EDTA, 0.5 mM EGTA, 6% glycerol, 35 ng/ul poly-dIdC, 1% milk, 1 h, room temperature; Ap Aiptasia and Nv Nematostella (sea anemones) / Co Capsaspora / Aq Amphimedon (sponge) / Dm Drosophila / Hu human; RHD is the Rel homology domain; high values mean tight binding; most listed sequences are background and not binding sites; double strand, one strand shown
GST-Ap-NF-kB RHD = target: T1, GST-Ap-NF-kB RHD (UniProt A0A913YAJ5)
T1 sequence: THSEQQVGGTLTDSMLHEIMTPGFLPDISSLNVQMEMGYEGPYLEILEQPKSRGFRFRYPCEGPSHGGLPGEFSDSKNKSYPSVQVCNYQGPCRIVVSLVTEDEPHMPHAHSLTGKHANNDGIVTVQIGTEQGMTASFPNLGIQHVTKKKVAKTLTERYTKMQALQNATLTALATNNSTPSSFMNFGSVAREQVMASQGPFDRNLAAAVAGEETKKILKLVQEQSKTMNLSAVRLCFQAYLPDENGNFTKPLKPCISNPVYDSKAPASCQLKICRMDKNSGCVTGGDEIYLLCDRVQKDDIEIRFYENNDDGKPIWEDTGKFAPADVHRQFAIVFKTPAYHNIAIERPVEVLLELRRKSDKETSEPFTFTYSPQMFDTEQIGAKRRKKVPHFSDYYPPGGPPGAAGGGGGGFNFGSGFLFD

[1] = target: T2, GST-Nv-NF-kB (Cys allele) (UniProt E5G601)
T2 sequence: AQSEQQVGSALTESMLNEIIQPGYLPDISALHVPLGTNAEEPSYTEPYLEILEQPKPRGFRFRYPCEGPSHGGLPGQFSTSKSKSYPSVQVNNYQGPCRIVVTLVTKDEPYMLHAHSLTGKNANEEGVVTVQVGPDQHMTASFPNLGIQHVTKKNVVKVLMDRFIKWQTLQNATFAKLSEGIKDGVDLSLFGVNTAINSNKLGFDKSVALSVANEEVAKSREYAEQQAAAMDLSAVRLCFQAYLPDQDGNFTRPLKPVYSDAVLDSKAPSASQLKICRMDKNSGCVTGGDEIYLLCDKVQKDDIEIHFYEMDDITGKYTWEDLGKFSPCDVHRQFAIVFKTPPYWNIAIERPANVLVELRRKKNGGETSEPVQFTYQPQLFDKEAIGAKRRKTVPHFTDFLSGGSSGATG

GST-Co-NF-kB = target: T3, GST-Co-NF-kB (UniProt F1ARL5)
T3 sequence: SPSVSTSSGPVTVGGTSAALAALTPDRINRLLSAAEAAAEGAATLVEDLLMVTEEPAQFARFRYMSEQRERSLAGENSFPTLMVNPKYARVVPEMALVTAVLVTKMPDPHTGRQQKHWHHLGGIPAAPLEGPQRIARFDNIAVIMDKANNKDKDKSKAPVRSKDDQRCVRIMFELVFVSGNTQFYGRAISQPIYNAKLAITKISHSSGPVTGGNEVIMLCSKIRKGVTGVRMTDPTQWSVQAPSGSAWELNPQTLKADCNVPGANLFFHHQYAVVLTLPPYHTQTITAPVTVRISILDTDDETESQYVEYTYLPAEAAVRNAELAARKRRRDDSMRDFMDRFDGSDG

GST-Dm-Relish = target: T4, GST-Dm-Relish (UniProt Q94527)
T4 sequence: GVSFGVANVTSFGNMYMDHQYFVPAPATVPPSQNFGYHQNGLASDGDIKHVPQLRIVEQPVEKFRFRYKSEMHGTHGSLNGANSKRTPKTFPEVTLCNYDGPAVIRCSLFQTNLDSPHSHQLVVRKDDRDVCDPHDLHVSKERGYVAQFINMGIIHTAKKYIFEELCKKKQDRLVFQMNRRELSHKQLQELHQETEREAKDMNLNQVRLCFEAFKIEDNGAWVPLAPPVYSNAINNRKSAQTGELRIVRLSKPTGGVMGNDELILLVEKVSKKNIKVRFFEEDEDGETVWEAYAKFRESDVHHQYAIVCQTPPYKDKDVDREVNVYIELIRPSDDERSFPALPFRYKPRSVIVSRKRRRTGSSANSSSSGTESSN

GST-Aq-NF-kB = target: T5, GST-Aq-NF-kB (UniProt A9Y5G7)
T5 sequence: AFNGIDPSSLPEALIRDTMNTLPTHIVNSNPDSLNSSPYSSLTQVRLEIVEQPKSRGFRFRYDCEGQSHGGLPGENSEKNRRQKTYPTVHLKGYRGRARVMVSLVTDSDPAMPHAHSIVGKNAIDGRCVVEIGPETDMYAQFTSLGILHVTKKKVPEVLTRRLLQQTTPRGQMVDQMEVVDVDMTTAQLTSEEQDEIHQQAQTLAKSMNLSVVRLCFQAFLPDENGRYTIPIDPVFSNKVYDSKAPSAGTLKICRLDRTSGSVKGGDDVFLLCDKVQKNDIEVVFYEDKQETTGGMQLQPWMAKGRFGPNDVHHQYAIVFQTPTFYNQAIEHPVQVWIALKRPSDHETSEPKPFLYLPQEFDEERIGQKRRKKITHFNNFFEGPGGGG

Sequence | binding signal (GST-Ap-NF-kB RHD) [z-score] | binding signal [1] [z-score] | binding signal (GST-Co-NF-kB) [z-score] | binding signal (GST-Dm-Relish) [z-score] | binding signal (GST-Aq-NF-kB) [z-score]
CCGATTAACATCAGGGCCAAAAATGATGTTAATCGGGTCTTGATTCGCTTGACGCTGCTG | -0.273 | 0.256 | -0.326 | 0.083 | 0.197
CCGATTAACATCATTTTCCAAAATGATGTTAATCGGGTCTTGATTCGCTTGACGCTGCTG | -0.979 | 0.0318 | -1.3 | 0.433 | -0.116
CCGATTAACATCAGGAATCGCCATGATGTTAATCGGGTCTTGATTCGCTTGACGCTGCTG | -0.281 | -0.231 | -0.965 | -0.248 | -0.108
CCGATTAACATCAGTCTACGTGCTGATGTTAATCGGGTCTTGATTCGCTTGACGCTGCTG | -0.665 | -0.764 | -0.69 | -0.937 | -0.492
CCGATTAACATCAAAGATTCAGCTGATGTTAATCGGGTCTTGATTCGCTTGACGCTGCTG | -0.649 | -0.313 | -0.873 | -0.655 | -0.776
CCGATTAACATCACAGTCCAAACTGATGTTAATCGGGTCTTGATTCGCTTGACGCTGCTG | -0.728 | -0.785 | -0.461 | -0.395 | -0.337
CCGATTAACATCATGATTGTTTATGATGTTAATCGGGTCTTGATTCGCTTGACGCTGCTG | -0.516 | 0.186 | -0.512 | -0.651 | -0.191
CCGATTAACATCACTACGTACCGTGATGTTAATCGGGTCTTGATTCGCTTGACGCTGCTG | -0.065 | -0.00122 | -0.215 | 0.328 | -0.213
CCGATTAACATCAGATTTACCGCTGATGTTAATCGGGTCTTGATTCGCTTGACGCTGCTG | 0.0251 | 0.309 | 0.383 | -0.049 | -0.077

— paper PMC5700166
